Measured values reported in PubChem BioAssay AID651820 (National Center for Advancing Translational Sciences (NCATS), 2012).
Values joined by “and” are separate entries in the source; they are usually repeats but may differ in a detail not shown here. Identical values can stand only once. Out of some 340,000 compounds screened, about 12,000 (3.5%) were called active. The shares of active, inactive and inconclusive entries below differ from those in the screen. Calls follow the shape of the dose curve; as a rule, active = well fitted inhibition curve with a large enough effect; inconclusive = small, poorly fitted or top-dose-only effect, or another doubt; inactive = no such curve, though single readings can be large or run the other way. Where the call is inconclusive, the potency comes from a doubtful curve fit.

Test: qHTS Assay for Inhibitors of Hepatitis C Virus (HCV)
Conditions: Huh7.5.1 HCVcc-Cre (HCVcc is cell-culture hepatitis C virus) infection, luciferase reporter, 44 h; activity change, negative = inhibition: at 41.8 µM (top of the series) unless noted
Procedure, shortened: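 Infectious HCVcc-Cre (~0.5 moi) was added to cells just after compound, with cells seeded 4 h earlier at 1,000 per well. Luciferase activity after 44 h culture reported infection; substrate was incubated 15 min at room temperature before reading.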
% is scaled to controls: 0 for no effect and ±100 for the full control effect; potency is read from the fitted curve at half-maximal effect; tags tell the direction and shape of the fitted curve.

Row | SMILES | Potency | activity change, negative = inhibition
1 | CCc1nc(CN2CCN(c3ccc(C(F)(F)F)cn3)CC2)c(C)[nH]1 | active: 10 µM | 
2 | COc1ccc(/C=C/c2nc3ccccc3c(=O)n2-c2cccc(C(=O)O)c2)cc1 |  | inactive: 13.3%
3 | Cc1ccc(C)c(Nc2ncnc(N)c2[N+](=O)[O-])c1 |  | inactive: 6.22%
4 | C(=N\n1c2ccccc2c2ccccc21)/c1ccccc1 | inconclusive: 31.6 µM [inhibitor, single point] | 
5 | COC(=O)c1[nH]c2ccccc2c1NC(=O)CN1CCN(c2cccc(Cl)c2)CC1 | inconclusive: 10 µM [inhibitor, partial curve] | 
6 | COc1ccccc1CNC(=O)Cn1cccc1C(=O)c1ccccc1 |  | inactive: 4.46%
7 | CCN(CC)CCNC(=O)c1c(O)c2ccccc2n(Cc2ccccc2)c1=O | inconclusive: 2.51 µM [inhibitor, partial curve, poor fit] | 
8 | CC1Sc2ccc(S(=O)(=O)N3CCC(C(=O)NCC(C)c4ccccc4)CC3)cc2NC1=O (configuration not stated) | active: 11.2 µM | 
9 | COc1ccc(S(=O)(=O)N2CCOC23CCN(C(=O)c2ccc(Cl)cc2Cl)CC3)cc1 | inconclusive: 10 µM [inhibitor, partial curve] | 
10 | O=S(=O)(Nc1ccc2ccccc2c1)N1CCCCC1 |  | inactive: -21.3%
11 | Cc1cc(C(=O)NN=C(CCC(=O)O)c2cccs2)c(C)o1 |  | inactive: -5.34%
12 | COc1ccc(S(=O)(=O)Nc2ccc(S(=O)(=O)NCC3CCCO3)cc2)cc1 (configuration not stated) |  | inactive: -18.1%
13 | CCc1ccc(OCCNC(=O)c2ccccc2SCc2ccc(F)cc2)cc1 | inconclusive: 11.2 µM [inhibitor, single point] | 
14 | CCCCCc1nnc(NC(=O)c2ccc3nc[nH]c3c2)s1 |  | inactive: 7.14%
15 | Cc1cc(C)c(C(=O)Nc2ccc(C)c(C)c2)c(CC(C)(C)C(=O)O)c1 |  | inconclusive: -55.3% [inhibitor]
16 | COc1ccccc1NS(=O)(=O)c1ccc2oc(SCC(=O)N3CCNC3=O)nc2c1 | inconclusive: 15.8 µM [inhibitor, single point] | 
17 | COCC(C)n1c(C)cc(C(=O)COC(=O)c2cccn2C)c1C (configuration not stated) | inconclusive: 2.82 µM [inhibitor, single point] | 
18 | CC1CCCN(C(=O)COC(=O)/C=C/c2ccc(C(F)(F)F)cc2)C1 (configuration not stated) | inconclusive: 31.6 µM [inhibitor, single point] | 
19 | COc1ccc(S(=O)(=O)N2CCN(C(=O)c3cc(-c4ccccc4OC)n[nH]3)CC2)cc1 | inconclusive: 31.6 µM [inhibitor, single point] | 
20 | O=C(CN1C(=O)C2C3C=CC(C3)C2C1=O)Nc1ccc(S(=O)(=O)N2CCCCC2)cc1 (configuration not stated) | inconclusive: 31.6 µM [inhibitor, single point] | 
21 | Cc1[nH]c2ccccc2c1C(=O)CSc1nc2ccccc2[nH]1 | inconclusive: 14.1 µM [inhibitor, single point] | 
22 | Cc1ccc2c(c1)S/C(=C/c1ccc[n+](C)c1)N2CCO | inconclusive: 1.41 µM [inhibitor, full curve] | 
23 | Cc1nnc(NC(=O)Nc2ccc(Cl)c(Cl)c2)s1 | active: 14.1 µM | 
24 | COc1ccc(C(=O)NNC(=O)CSc2nnnn2-c2cc(OC)cc(OC)c2)cc1 | active: 11.2 µM | 

Row | SMILES | Potency | activity change, negative = inhibition
25 | CCn1c(=O)c(C(=O)NCCCO)c(O)c2ccccc21 | inconclusive: 7.08 µM [inhibitor, partial curve] | 
26 | O=c1[nH]c2cc3c(cc2cc1CN(Cc1ccccc1)Cc1nnnn1Cc1ccco1)OCCO3 | inconclusive: 31.6 µM [inhibitor, single point] | 
27 | Nc1ccc(/C=C/C(=O)c2ccco2)cc1 |  | inactive: -3.22%
28 | CC1(C2CC2)NC(=O)N(CC(=O)Nc2ccc(SC(F)F)cc2)C1=O (configuration not stated) | inconclusive: 31.6 µM [inhibitor, single point] | 
29 | COC(=O)C1=C(c2ccc(F)cc2F)C[C@@H]2CC[C@H]1N2C(=O)NCc1ccc(F)cc1 | inconclusive: 11.2 µM [inhibitor, single point] | 
30 | CCOC(=O)c1c(NC(=O)CSc2nnc(-c3cccc(C)c3)n2CC)sc(C(C)=O)c1C | active: 3.55 µM | 
31 | CCOCCCNC(=O)c1cc2c(-c3ccc(Cl)cc3)nn(C)c2s1 | inconclusive: 12.6 µM [inhibitor, partial curve] | 
32 | CN(C)S(=O)(=O)c1ccc(Nc2nc(C3CC3)nc3c2nnn3Cc2ccccc2Cl)cc1 | inconclusive: 3.16 µM [inhibitor, full curve] | 
33 | CN(C)S(=O)(=O)c1ccc(C(=O)Nc2cc(S(=O)(=O)Nc3ccccc3Cl)ccc2N2CCCCC2)cc1 | inconclusive: 12.6 µM [inhibitor, partial curve] and inconclusive: 8.91 µM [inhibitor, partial curve] | 
34 | Cc1csc(NC(=O)CSc2nnc3ncccn23)n1 |  | inactive: 3.84%
35 | Cc1cccc(N2C(=O)CC(N3CCN(c4cccc(C(F)(F)F)c4)CC3)C2=O)c1 (configuration not stated) | inactive | 
36 | Cc1ccc(Cl)cc1N1CCN(C(=O)C2CCN(S(=O)(=O)c3cccnc3)CC2)CC1 | inconclusive: 31.6 µM [inhibitor, single point] | 
37 | CCOC(=O)C1CCN(C(=O)CCc2c(C)nc3c(-c4ccc(F)cc4)c(C)nn3c2C)CC1 |  | inactive: 12%
38 | CCCCCCn1c(CN2CCCCC2C)nc2c1c(=O)n(C)c(=O)n2C (configuration not stated) | active: 25.1 µM | 
39 | O=C(CCN1C(=O)/C(=C\c2ccccc2)SC1=S)NNC(=O)c1ccccc1O | inconclusive: 0.501 µM [inhibitor, full curve, poor fit] | 
40 | Cc1cc(NCCCN(C)C)n2nc(-c3cccs3)cc2n1 | inconclusive: 11.2 µM [inhibitor, partial curve, poor fit] | 
41 | Cc1ccc(C)c(NC(=O)COC(=O)c2c(C)nn(-c3ccccc3)c2C)c1 | inconclusive: 31.6 µM [inhibitor, single point] | 
42 | COc1ccc(C)cc1NC(=O)CNC(c1ccccc1)c1ccccc1 | inconclusive: 14.1 µM [inhibitor, single point] | 
43 | COc1ccccc1N1CCN(c2ccnc3cc(Cl)ccc23)CC1 | inconclusive: 14.1 µM [inhibitor, partial curve] | 
44 | O=C(C1=C[C@@H](c2ccc(Br)cc2)C[C@@H](OCc2ccc(CO)cc2)O1)N1CCN(Cc2ccccc2)CC1 | inconclusive: 31.6 µM [inhibitor, single point] | 
45 | CCCN1C(=O)c2ccc(C(=O)Nc3ccccc3C(=O)O)cc2C1=O |  | inactive: 7.04%
46 | CC(C)(C)c1ccccc1OCC(=O)Nc1ccccc1C(=O)NCc1cccnc1 | inconclusive: 12.6 µM [inhibitor, single point] | 
47 | COc1ccc(C(=O)NC(=S)NC(C)c2ccccc2)cc1 (configuration not stated) | inconclusive: 31.6 µM [inhibitor, single point] | 
48 | COc1ccc(N(CC(=O)N2CCCC2)S(C)(=O)=O)cc1 |  | inactive: 19%

Row | SMILES | Potency | activity change, negative = inhibition
49 | CC(C)CC(CO)N1CCN(C(=O)c2ccc(Cl)cc2)CCC1=O (configuration not stated) |  | inactive: -13.5% [at 8.37 µM]
50 | CCS(=O)(=O)c1nc(S(=O)(=O)c2ccc(Cl)cc2)c(N2CCCC2)s1 |  | inactive: 1.26%
51 | CCOc1ccc2nc(NC(=O)CN3C(=O)NC4(CCCC4)C3=O)sc2c1 | inconclusive: 31.6 µM [inhibitor, single point] | 
52 | Cc1cc(Cl)ccc1OCC(=O)N1CCCN(C(=O)COc2ccc(Cl)cc2C)CC1 | inconclusive: 5.62 µM [inhibitor, full curve] | 
53 | COc1ccc(-c2noc(-c3ccccc3-c3ccccc3)n2)cc1OC | inconclusive: 5.62 µM [inhibitor, full curve] | 
54 | Cc1cc(C)c(Cn2ncn(-c3ccc(Br)cc3)c2=O)c(C)c1 | inconclusive: 22.4 µM [inhibitor, partial curve, poor fit] | 
55 | O=C(N/N=C/c1ccccn1)c1cccc([N+](=O)[O-])c1 |  | inactive: -8.57%
56 | COc1ccc(CCN(C)C(=O)c2cc(-c3ccccc3)nc3ccc(C)cc23)cc1OC | inconclusive: 31.6 µM [inhibitor, single point] | 
57 | COC(=O)CNc1nc(-c2ccncc2)nc2ccccc12 |  | inactive: -32.1%
58 | COCCNC(=O)C1CC2Cn3c(nc4ccccc43)C2N1C (configuration not stated) |  | inactive: 16.6%
59 | CCOC(=O)Cc1csc(SCC(=O)c2c(N)n(CC(C)C)c(=O)n(C)c2=O)n1 | active: 7.94 µM | 
60 | Cc1cccc(-c2nnn3c2nc(NCCc2ccc(S(N)(=O)=O)cc2)c2ccccc23)c1 | inconclusive: 0.501 µM [inhibitor, full curve] | 
61 | Nc1nc(SCC(=O)Nc2ncc(Cl)cc2Cl)n[nH]1 |  | inactive: 1.28%
62 | COC(=O)c1ccc(CN2CCCCC2)cc1 |  | inactive: 2.48%
63 | COC(=O)c1cc(OC)c(OC)cc1NCC(=O)Nc1ccc(OC)c(OC)c1 | inconclusive: 11.2 µM [inhibitor, partial curve] | 
64 | O=C(Nc1cccc(NC(=O)c2ccc(Cl)cc2Cl)c1)c1cccnc1 | active: 31.6 µM | 
65 | CCSc1nnc(-c2ccc(S(=O)(=O)N3CCOCC3)cc2)n1CC1CCCO1 (configuration not stated) | inconclusive: 0.562 µM [inhibitor, full curve] | 
66 | Cc1ccc2c(c1)C=CC(C#N)N2C(=O)c1ccccc1 (configuration not stated) | inconclusive: 10 µM [inhibitor, partial curve] | 
67 | COc1ccc(/C(N)=N/OC(=O)C2CCCCC2)cc1 |  | inactive: -0.686%
68 | COc1cc(Cl)c(C)cc1NC(=O)c1ccc2c(c1)OCO2 |  | inactive: 0.0152%
69 | Cc1ccccc1NC(=S)NCC1CCN(C(C)c2ccccc2)C1 (configuration not stated) |  | inactive: -5.93%
70 | Cc1cc(N)c2cc(NC(=O)/C=C/c3ccccc3Cl)ccc2n1 | active: 11.2 µM | 
71 | CCc1ccccc1NC(=O)C1CCN(C(=O)N2CCOc3ccccc32)CC1 | inconclusive: 22.4 µM [inhibitor, single point] | 
72 | COc1cccc(OC)c1C(=O)OCC(=O)NC(=O)NCc1ccccc1 | inconclusive: 10 µM [inhibitor, partial curve] | 
